Over roughly 33,000 sequences, “E-score (-0.5 to 0.5)” has its median near -0.016; the highest 2% begin near 0.31. Some of the results follow.
target: Cst6 (UniProt P40535); test: PBM E-score (8-mer binding enrichment) (E-score (-0.5 to 0.5)); higher = stronger / more preferred TF binding; most listed sequences are background and not binding sites; conditions: protein concentration: 200 nM; construct: GST-DNA-binding domain
Procedure, shortened: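 Universal all-10-mer Agilent arrays, double-stranded by primer extension on fresh or once-stripped slides, were probed with about 100-200 nM GST-tagged yeast transcription factors made by PURExpress. Fluorescent anti-GST detected bound protein, and masliner normalised the scans. E-scores from the Universal PBM Analysis Suite were given to each ungapped eight-base word pooled with its reverse complement.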

| Sequence | PBM E-score |
| --- | --- |
| ATTATCGG | -0.0321 |
| GGGAGTCA | -0.153 |
| ACCCCGGG | -0.128 |
| ACCTCGCG | 0.0421 |
| CTCTTTGA | 0.0383 |
| ATCAATTG | 0.288 |
| GCCACCCA | -0.358 |
| ATGAAGGA | 0.0888 |
| AACTCCTT | 0.0354 |
| GAGTCATC | 0.116 |
| CTGGATGC | -0.323 |
| CCGTTGCA | -0.0788 |
| ACGTGCAG | 0.0472 |
| CAATTGAA | -0.0121 |
| GTTATGAA | 0.117 |
| ACCTACCG | -0.13 |
| CGCTGAAG | -0.18 |
| GTAAGCTA | 0.184 |
| CAAACAAC | 0.145 |
| ATAAACCC | 0.0869 |
| ACTTCTGA | 0.105 |
| ACTACCTC | 0.0105 |
| CCCACACA | -0.194 |
| ACGACCTG | -0.0974 |
| TAAGCCGA | -0.00895 |

| Sequence | PBM E-score |
| --- | --- |
| AAGTGAGC | -0.0648 |
| GGGGATGA | -0.0642 |
| ACTTACCC | -0.048 |
| CCTGATGA | 0.205 |
| AAGAATCG | 0.229 |
| GACAACGC | 0.155 |
| ACTTCGTA | -0.0634 |
| AGCGTCAG | 0.177 |
| AGCTCGCC | -0.189 |
| GCATCACA | 0.222 |
| GTCTTGCA | 0.00819 |
| AATCTACT | 0.15 |
| GCATCGAA | -0.0745 |
| GCCTACAC | -0.0404 |
| ATTCGTGG | -0.00517 |
| CTGCGGGA | -0.321 |
| AGACCGTG | -0.137 |
| ACGTGAGC | -0.132 |
| TAACATCA | 0.399 |
| ACCCAGGG | -0.193 |
| GAATCCGC | -0.262 |
| TAGGACGA | -0.175 |
| CCGACCGC | -0.328 |
| ACGCGTCA | 0.381 |
| GTCTGACA | 0.0375 |

| Sequence | PBM E-score |
| --- | --- |
| ATGCATGA | 0.3 |
| CTAGACTC | -0.329 |
| AAGCCTAA | -0.0639 |
| ATACCGTC | 0.104 |
| AAGTCTCC | -0.136 |
| CATGAGCA | -0.104 |
| CAATTGTG | 0.13 |
| CGCAGATC | -0.112 |
| CGACTACG | -0.0794 |
| CTGATACA | -0.0616 |
| AGCCACAC | -0.0643 |
| AAACTCAT | 0.188 |
| CGGCGCCG | 0.384 |
| TAAACTCA | 0.104 |
| CGAGTCAA | 0.024 |
| AACTCTCC | -0.0629 |
| AGACATGC | -0.245 |
| TGCGTGAA | 0.114 |
| CGAAACAG | -0.0555 |
| CAGCTGTC | -0.0675 |
| AGGTGCAT | -0.0945 |
| GCTACCAC | -0.124 |
| AACACCGA | 0.0511 |
| AAGGGGTA | -0.305 |
| GCTGGTAA | -0.0409 |

| Sequence | PBM E-score |
| --- | --- |
| CGGCATCA | 0.259 |
| CTCGAGAA | -0.0292 |
| GTAAAACA | -0.0042 |
| AGTAGTTA | 0.0343 |
| AGTCGGAT | -0.16 |
| CGCTATGA | 0.0594 |
| ATGCTAGG | -0.0393 |
| CGGCGTCC | 0.113 |
| CGAGCCCA | -0.158 |
| AGTCGCCC | -0.116 |
| ACCGCTAC | -0.299 |
| AAGTCATT | 0.0478 |
| CAATGAGC | -0.0115 |
| TATAAAAA | 0.273 |
| AGAGGTAG | -0.236 |
| ATTGCGTA | 0.415 |
| AAGTGGCC | -0.245 |
| AAGTACTA | 0.195 |
| AATGACGT | 0.495 |
| ATAGCTAT | -0.0877 |
| CATCCGCG | 0.151 |
| TGATCCAA | 0.149 |
| ACTATACA | 0.00344 |
| CGAGGGTA | -0.225 |
| TAATATGA | 0.305 |

| Sequence | PBM E-score |
| --- | --- |
| CGTAATGA | 0.402 |
| ATAAGGAT | 0.184 |
| ACAGCTTA | -0.0136 |
| CTTGAAGA | 0.0215 |
| CTCAATAC | 0.109 |
| GTTCATGA | 0.241 |
| AGCGCATG | -0.197 |
| CATTAGCG | -0.0563 |
| AGCAGAAA | 0.123 |
| ATGCTCAG | -0.0674 |
| AGAGATGA | 0.196 |
| GATTCCTA | -0.0381 |
| ACTAGAAA | 0.18 |
| AACCCAAC | -0.0123 |
| TAGTCCCA | -0.259 |
| ACTTTGAC | 0.0911 |
| ATGAAGCA | -0.0983 |
| CAACACCA | 0.00074 |
| GGTGATGA | 0.362 |
| GGAGATGA | 0.00363 |
| AAACGAAC | 0.204 |
| CGCTACCA | -0.113 |
| TACGAGCA | -0.231 |
| GTTGCTGA | 0.111 |
| CCTTTTCC | -0.113 |

| Sequence | PBM E-score |
| --- | --- |
| ACAAACAC | 0.213 |
| GGTCAACA | -0.0567 |
| CATTTTGC | 0.0672 |
| CATCAACC | 0.148 |
| AACCAGCG | 0.00295 |
| AGGGATAC | -0.12 |
| GACGTAGC | 0.166 |
| ACGCTACG | 0.0743 |
| CTGTCCTC | -0.198 |
| GTCAGGTA | 0.12 |
| ATAGAGCA | -0.00911 |
| CGTAAACA | 0.262 |
| GTATGTGA | 0.126 |
| CATATGTA | 0.132 |
| AGCTGACG | 0.359 |
| GGACCAAC | -0.161 |
| CGACATGA | 0.0532 |
| TAGCTTCA | -0.147 |
| CTACTTCC | 0.0887 |
| TAGTGATA | 0.088 |
| CGAGGTAC | -0.121 |
| AAATGGGC | -0.133 |
| ATATTCTA | 0.257 |
| CTTCATTA | 0.185 |
| ATTTAAGC | 0.196 |

| Sequence | PBM E-score |
| --- | --- |
| CGAATCCA | -0.176 |
| TGTATACA | 0.131 |
| GTGCATTA | 0.131 |
| GCAGCCTA | -0.125 |
| CACATCGG | -0.138 |
| GGCACCTA | -0.116 |
| AGCATCTA | -0.052 |
| AGAGAATA | 0.0833 |
| AAACATTG | 0.0275 |
| AGTAATTC | 0.189 |
| AGTCGAGC | -0.155 |
| TCCCTTCA | -0.0635 |
| ACACCCAG | -0.153 |
| AATAAGGG | 0.0454 |
| CTATCCAA | -0.059 |
| AACATCGG | -0.122 |
| CCTTTCCA | -0.0521 |
| GCCTCTAA | -0.167 |
| CGATAACC | -0.153 |
| GGTCAGAC | -0.149 |
| ATCCATCA | 0.0668 |
| AATACTCC | -0.177 |
| CAGTGCCC | -0.0146 |
| CGTCGGGC | -0.218 |
| GAACTAAC | 0.0294 |

| Sequence | PBM E-score |
| --- | --- |
| CTTATCCC | -0.0716 |
| ACTGAGGC | -0.102 |
| AATCTATC | -0.0282 |
| AACTGGAT | 0.0558 |
| GCACGGGA | -0.0634 |
| GACCTTTA | 0.0241 |
| CTGCCCGC | -0.169 |
| CGGTTATA | -0.00706 |
| GAAGCGTA | -0.102 |
| CTGACTCA | 0.0191 |
| CAGTACGC | -0.0344 |
| CAATGTGG | -0.0313 |
| ACTAGATA | 0.124 |
| ATAGTTTC | 0.104 |
| ATAAAGTG | 0.124 |
| CCTAGGAA | -0.0351 |
| GATGTCTA | 0.0748 |
| AATGGAAT | 0.144 |
| CCTTTACG | 0.186 |
| CTGAAGCC | -0.122 |
| CAGTCGAA | -0.161 |
| AAGTTATT | 0.204 |
| ACGCTAAA | 0.051 |
| GGCCATCA | -0.0845 |
| ACCTTCAT | -0.0967 |

| Sequence | PBM E-score |
| --- | --- |
| GATCTGAA | -0.109 |
| GGCGAGAC | -0.0737 |
| ATTTTGTC | 0.19 |
| AGAAATAT | 0.221 |
| AATAACTA | 0.185 |
| CGTCGAGA | 0.0993 |
| CGGAGTAA | -0.0229 |
| GACGTGGC | 0.049 |
| ATTAAAAT | 0.261 |
| CTTATTCA | 0.0605 |
| TAATAAGA | 0.16 |
| CGGGACTC | -0.122 |
| ATCCCTGG | -0.179 |
| GCTTTGGA | 0.06 |
| AACATCGC | -0.186 |
| CAACTCCA | -0.0388 |
| AATTGGAT | 0.125 |
| AAACACGC | 0.107 |
| CAAGTAGG | -0.213 |

From the supplement of paper PMC3334620
